{"source": "PubChem BioAssay AID463173", "about": "(ICCB-Longwood Screening Facility, Harvard Medical School, 2010)", "note": "Among all 52,000 compounds or so, about 1,700 (3.3%) were called active. Rule as the data show it: active = survival mostly below about 52% (no sharp cut-off); inactive = mostly above about 56%. The list shows a part of the results."}
{"system": "Wild type", "test": "growth inhibition of S. aureus wild type versus tarO mutant, primary screen, teichoic acid synthesis inhibitors, RN4220, OD600 (AID 463173)", "conditions": "S. aureus RN4220 wild type/DeltatarO growth, OD600, 18 h, hits give low values, screened at 18.75 µg/mL (by protocol)"}
{"molecule": "CCCCN(C)C(=O)C1CCCN(c2ncnc3onc(-c4ccc(F)cc4)c23)C1", "note": "(stereo not drawn)", "survival": "inactive: 73%"}
{"molecule": "Cc1cccc(N2CCN(C(=O)CSCc3ccc(F)cc3)CC2)c1C", "survival": "inactive: 75%"}
{"molecule": "O=C(Nc1cccc(-n2cnnn2)c1)c1ccccc1", "survival": "inactive: 102%"}
{"molecule": "O=C(NCc1ccccc1)c1ccc(NC(=O)c2nsc3ccccc23)cc1", "survival": "inactive: 55%"}
{"molecule": "COc1ccc(CNC(=O)CCC(=O)N2CC3CCCN3c3ccccc32)cc1", "note": "(stereo not drawn)", "survival": "inactive: 73%"}
{"molecule": "COc1ccccc1CNC(=O)c1ccc(CS(=O)(=O)c2ccccc2C)o1", "survival": "inactive: 73%"}
{"molecule": "CCCNC(=O)c1ccc(-n2c(-c3ccccc3)cc3c2CCCCC3)cc1", "survival": "inactive: 116%"}
{"molecule": "CCOc1cccc(CC(=O)Nc2ccc3nc(N4CCCCC4)cc(C)c3c2)c1OCC", "survival": "inactive: 129%"}
{"molecule": "CC(=O)N1CCCc2cc(S(=O)(=O)N3CCC(C(=O)NCc4ccc(N(C)C)cc4)CC3)ccc21", "survival": "inactive: 66%"}
{"molecule": "COc1cc(CN(CC2CCCO2)C(=O)c2ccc(F)cc2)cc(OC)c1OC", "note": "(stereo not drawn)", "survival": "inactive: 86%"}
{"molecule": "CCN1CCN(C(C)C(=O)Nc2ccc3c(c2)OCO3)CC1", "note": "(stereo not drawn)", "survival": "inactive: 107%"}
{"molecule": "Nn1c(C2CC2)nc2cc(Cl)ccc2c1=O", "survival": "inactive: 108%"}
{"molecule": "CCC(=O)N1CCc2cc(S(=O)(=O)NCCC(=O)NCc3ccccc3Cl)ccc21", "survival": "inactive: 83%"}
{"molecule": "Cc1ccccc1-c1noc(C(C)NC(=O)c2ccco2)n1", "note": "(stereo not drawn)", "survival": "inactive: 85%"}
{"molecule": "O=C(NC1C2CC3CC(C2)CC1C3)c1cc2ccccc2o1", "note": "(stereo not drawn)", "survival": "inactive: 100%"}
{"molecule": "CSc1cccc(N=C2C(=O)Nc3ccccc32)c1", "survival": "inactive: 108%"}
{"molecule": "COc1ccccc1CNC(=O)C(CC(C)C)NS(=O)(=O)c1ccc2c(c1)oc(=O)n2C", "note": "(stereo not drawn)", "survival": "inactive: 90%"}
{"molecule": "Cn1c(=NC(=O)c2ccc3c(c2)OCCO3)sc2cc(S(C)(=O)=O)ccc21", "survival": "inactive: 71%"}
{"molecule": "COC(=O)c1ccc(-n2nnc(-c3nc(-c4ccc5c(c4)OCO5)no3)c2C)cc1", "survival": "inactive: 105%"}
{"molecule": "CC(C)c1nc2ccc(C(=O)NCCCN3CCN(c4ccccc4F)CC3)cc2o1", "survival": "inactive: 78%"}
{"molecule": "CCN(C(=O)CN(C)S(=O)(=O)c1ccc2c(c1)c(=O)n(C)c(=O)n2C)c1ccc(OC)cc1", "survival": "inactive: 77%"}
{"molecule": "O=C1CC(C(=O)NCc2ccccc2)N=C(N2CCCCC2)N1", "note": "(stereo not drawn)", "survival": "inactive: 98%"}
{"molecule": "Cc1cc(Br)ccc1NC(=O)CCS(=O)(=O)c1cccc2nsnc12", "survival": "inactive: 124%"}
{"molecule": "CC(=O)NCCNc1nc2c(S(=O)(=O)c3ccc(C)c(C)c3)nnn2c2ccc(Cl)cc12", "survival": "inactive: 80%"}
{"molecule": "CCOC(=O)c1ccc(NC(=O)C2CCCN(c3ccc(Sc4ccc(C)cc4)nn3)C2)cc1", "note": "(stereo not drawn)", "survival": "inactive: 80%"}
{"molecule": "Cc1sc2nc(C(C)C)n3c(=S)[nH]nc3c2c1C", "survival": "inactive: 103%"}
{"molecule": "Cc1cc(C)cc(-n2cnc3ccccc3c2=O)c1", "survival": "inactive: 106%"}
{"molecule": "N#Cc1ccc(CN2C(=O)c3ccccc3Sc3ccc(C(=O)OCc4ccco4)cc32)cc1", "survival": "inactive: 132%"}
{"molecule": "CCOc1ccc2nc(NC(=O)CS(=O)(=O)c3ccc(Cl)cc3)sc2c1", "survival": "inactive: 75%"}
{"molecule": "Cc1ccc(C2c3c(oc4ccccc4c3=O)C(=O)N2c2ccc(C)cn2)cc1", "note": "(stereo not drawn)", "survival": "inactive: 64%"}
{"molecule": "Cc1ccc(C(C)C)c(OCC(=O)Nc2ccc(S(=O)(=O)Nc3onc(C)c3C)cc2)c1", "survival": "inactive: 159%"}
{"molecule": "CCCNC(=O)c1cnn2c(C)c(Cc3c(C)cc(C)cc3C)c(C)nc12", "survival": "inactive: 65%"}
{"molecule": "COc1ccc(NC(=O)c2cc3nc(-c4ccc(Cl)c(Cl)c4)cc(C(F)(F)F)n3n2)c(OC)c1", "survival": "inactive: 75%"}
{"molecule": "Cc1sc2ncn(CC(=O)Nc3ccc(F)cc3F)c(=O)c2c1S(=O)(=O)N1CCC(C)CC1", "survival": "inactive: 93%"}
{"molecule": "CCOc1ccccc1NC(=O)N1CCC(n2c(C)nc3cccnc32)CC1", "survival": "inactive: 78%"}
{"molecule": "O=C1CCCC2=C1C(c1ccc3c(c1)OCO3)c1c([nH]c(=O)[nH]c1=O)N2", "note": "(stereo not drawn)", "survival": "inactive: 111%"}
{"molecule": "COc1ccc(CNC(=O)CCc2cn(C)c3ccccc23)cc1", "survival": "inactive: 83%"}
{"molecule": "COc1ccc(C(=O)NC2CC(=O)N(c3ccc4c(c3)OCCO4)C2)cc1", "note": "(stereo not drawn)", "survival": "inactive: 143%"}
{"molecule": "CN(C)c1cc(N)c2c(n1)CCC2", "survival": "inactive: 86%"}
{"molecule": "Cc1c(-c2nnc(SCC(=O)Nc3ccccc3F)o2)nnn1-c1ccc(F)cc1", "survival": "inactive: 72%"}
{"molecule": "Cc1ccc(C(=O)N/C(=C/c2ccc3c(c2)OCO3)C(=O)O)cc1", "survival": "inactive: 104%"}
{"molecule": "CCNC(=O)Nc1ccc2nc(C)n(Cc3cccc(Cl)c3)c(=O)c2c1", "survival": "inactive: 115%"}
{"molecule": "COc1cccc(N2CCN(S(=O)(=O)c3cn(C)c(C)n3)CC2)c1", "survival": "inactive: 94%"}
{"molecule": "CC(NC(=O)c1ccc(F)cc1)C(=O)O", "note": "(stereo not drawn)", "survival": "inactive: 106%"}
{"molecule": "Cc1ccc(CCNC(c2ccc(F)cc2)c2nnc(-c3ccccc3Cl)o2)cc1", "note": "(stereo not drawn)", "survival": "active: 0%"}
{"molecule": "CCOc1ccc(CNC(=O)c2cccc(NC(=O)N3CCSc4ncccc43)c2)cc1", "survival": "inactive: 100%"}
{"molecule": "CCn1c(C(=O)N2CCC(C(=O)N3CCN(c4cc(C)ccc4C)CC3)CC2)cc2sccc21", "survival": "inactive: 41%"}
{"molecule": "COc1ccc(CNC(=O)c2ccc3nc(CCc4ccccc4)oc3c2)cc1OC", "survival": "inactive: 71%"}
{"molecule": "CC(=O)N1CCc2cc(S(=O)(=O)NC(CC(C)C)C(=O)Nc3ccc(C(C)C)cc3)ccc21", "note": "(stereo not drawn)", "survival": "inactive: 73%"}
{"molecule": "CC(C)Cn1cc(NC(=O)Nc2cccc(C(F)(F)F)c2)c2ccccc2c1=O", "survival": "inactive: 54%"}
{"molecule": "CCOC(=O)N1CCc2c(sc3c2c(=O)n(Cc2ccccc2)c(=O)n3Cc2cc(C)ccc2C)C1", "survival": "inactive: 88%"}
{"molecule": "CC(=O)N1c2ccc(S(=O)(=O)N3CCCCCC3)cc2CC1C(=O)NC(C)C", "note": "(stereo not drawn)", "survival": "inactive: 68%"}
{"molecule": "CCOC(=O)c1c(C)sc(-c2c(-c3ccc4c(c3)OCCO4)[nH]c3c2c(=O)n(C)c(=O)n3C)c1O", "survival": "inactive: 133%"}
{"molecule": "Cc1cc(-c2ccc(C)c(S(=O)(=O)N3CCC(C)CC3)c2)on1", "survival": "inactive: 115%"}
{"molecule": "CC(C)CC(=O)Nc1nc2c(s1)CC(C(C)(C)C)CC2", "note": "(stereo not drawn)", "survival": "inactive: 136%"}
{"molecule": "Cc1ccc2nsnc2c1S(=O)(=O)NC(C)(C)C", "survival": "inactive: 96%"}
{"molecule": "CCc1nn(CCCC(=O)N2CCN(c3cc(Cl)ccc3C)CC2)c(=O)c2cc3occc3n12", "survival": "inactive: 76%"}
{"molecule": "COc1ccc(CC(=O)NC2CC(=O)N(c3cccc(F)c3)C2)cc1OC", "note": "(stereo not drawn)", "survival": "inactive: 78%"}
